In all, about 81,000 sequences were measured (“one-hybrid fitness for binding parS DNA”: median about -0.17, highest 2% from about 0.51 on). This is one part of the list.
B1: Caulobacter ParB omega fusion; a variant is named by its letters at X, in order, B8GW30 (parent)
chain: MESVVVGEPGMSEGRRGLGRGLSALLGEVDAAPAQAPGEQLGGSREAPIEILQRNPDQPRRTFREEDLEDLSNSIREKGVLQPILVRPSPDTAGEYQIVAGERAWRAAQRAGLKTVPIMVRELDDLAVLEIGIIENVQRADLNVLEEALSYKVLMEKFERTQENIAQTIGKSXSHVANXMRLLXLPDEVQSYLVSGELTAXHARAIAAAADPVALAKQIIEGGLSVRETEALARKAPNLSAGKSKGGRPPRVKDTDTQALESDLSSVLGLDVSIDHRGSTGTLTITYATLEQLDDLCNRLTRGI

Variants of: B1
Experiment: one-hybrid fitness for binding parS DNA (scaled: cognate 1, non-cognate 0); higher = stronger binding
Settings: with parS DNA site
How it was run: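 Caulobacter ParB libraries with four specificity codons randomised were screened by bacterial one-hybrid selection in the E. coli USO strain, using a HIS3 reporter whose site lies 19 bp from the promoter. Selection ran for 48 hours at 37°C on M9 lacking histidine, with 0.1 mM IPTG and 5 mM 3-AT. Plasmids were Illumina-sequenced before and after selection, three replicate libraries were pooled, and variants with under 10 reads were dropped. Fitness is the log change in each variant's read ratio to wild type, rescaled against the cognate and non-cognate sites.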

| Variant | one-hybrid fitness for binding parS DNA |
| --- | --- |
| KYSV | ≤ 0.2 |
| NIWT | ≤ 0.2 |
| LHWL | ≤ 0.2 |
| FWFG | ≤ 0.2 |
| VTHF | ≤ 0.2 |
| SLLY | ≤ 0.2 |
| TMRI | ≤ 0.2 |
| ERFA | ≤ 0.2 |
| VRYC | ≤ 0.2 |
| PQVE | ≤ 0.2 |
| CYMT | ≤ 0.2 |
| KNIL | ≤ 0.2 |
| PIGS | ≤ 0.2 |
| KMPS | ≤ 0.2 |
| RESN | ≤ 0.2 |
| GAGL | ≤ 0.2 |
| VDHT | ≤ 0.2 |
| RIIN | 0.379 |
| QEVE | ≤ 0.2 |
| GDVT | ≤ 0.2 |
| QLCW | ≤ 0.2 |
| PCMC | ≤ 0.2 |
| RHGR | ≤ 0.2 |
| LYTY | ≤ 0.2 |

| Variant | one-hybrid fitness for binding parS DNA |
| --- | --- |
| ECRC | ≤ 0.2 |
| RTTW | 0.239 |
| QNDC | ≤ 0.2 |
| RQGS | 0.978 |
| PFAV | ≤ 0.2 |
| DAMR | ≤ 0.2 |
| TLAK | ≤ 0.2 |
| TQFR | ≤ 0.2 |
| ADVF | ≤ 0.2 |
| PQSS | ≤ 0.2 |
| PCKT | ≤ 0.2 |
| QSRY | ≤ 0.2 |
| NPGR | ≤ 0.2 |
| ALLV | ≤ 0.2 |
| RTLQ | ≤ 0.2 |
| EQAS | ≤ 0.2 |
| CNWT | ≤ 0.2 |
| SFLA | ≤ 0.2 |
| LHFR | ≤ 0.2 |
| PITF | ≤ 0.2 |
| RVYI | ≤ 0.2 |
| CFYV | ≤ 0.2 |
| SDIC | ≤ 0.2 |
| ESTW | ≤ 0.2 |

| Variant | one-hybrid fitness for binding parS DNA |
| --- | --- |
| RKKG | 0.802 |
| MLET | ≤ 0.2 |
| GVVA | ≤ 0.2 |
| SMTY | ≤ 0.2 |
| QVQH | ≤ 0.2 |
| QQTE | ≤ 0.2 |
| PQHK | ≤ 0.2 |
| WVRA | ≤ 0.2 |
| RPED | ≤ 0.2 |
| WGNH | ≤ 0.2 |
| TPHE | ≤ 0.2 |
| QKRF | ≤ 0.2 |
| HKVV | ≤ 0.2 |
| AIKM | ≤ 0.2 |
| LHNV | ≤ 0.2 |
| QNGI | ≤ 0.2 |
| TEQT | ≤ 0.2 |
| LTCM | ≤ 0.2 |
| YSWC | ≤ 0.2 |
| EMLK | ≤ 0.2 |
| PTPK | ≤ 0.2 |
| SHQQ | ≤ 0.2 |
| PYSK | ≤ 0.2 |
| RMTL | ≤ 0.2 |

| Variant | one-hybrid fitness for binding parS DNA |
| --- | --- |
| HHTD | ≤ 0.2 |
| RWCT | 0.611 |
| KTTC | ≤ 0.2 |
| HSQY | ≤ 0.2 |
| HMVI | ≤ 0.2 |
| YNKV | ≤ 0.2 |
| TNPD | ≤ 0.2 |
| YNTT | ≤ 0.2 |
| GGLV | ≤ 0.2 |
| DTFC | ≤ 0.2 |
| FRVL | ≤ 0.2 |
| SMGI | ≤ 0.2 |
| NPGS | ≤ 0.2 |
| WIWG | ≤ 0.2 |
| CPLD | ≤ 0.2 |
| SFQI | ≤ 0.2 |
| LFLG | ≤ 0.2 |
| RDYT | ≤ 0.2 |
| WLLC | ≤ 0.2 |
| YMSS | ≤ 0.2 |
| DWLL | ≤ 0.2 |
| GPWN | ≤ 0.2 |
| DWAG | ≤ 0.2 |
| KHIG | ≤ 0.2 |

| Variant | one-hybrid fitness for binding parS DNA |
| --- | --- |
| RAAK | ≤ 0.2 |
| NRLY | ≤ 0.2 |
| DNEC | ≤ 0.2 |
| TRNR | ≤ 0.2 |
| YTRE | ≤ 0.2 |
| LSRP | ≤ 0.2 |
| NMTY | ≤ 0.2 |
| LPLH | ≤ 0.2 |
| WSVC | ≤ 0.2 |
| CLRS | ≤ 0.2 |
| GWRK | ≤ 0.2 |
| QTIC | ≤ 0.2 |
| TMMS | ≤ 0.2 |
| IYNM | ≤ 0.2 |
| QGVP | ≤ 0.2 |
| CKPS | ≤ 0.2 |
| GHNG | ≤ 0.2 |
| QNPI | ≤ 0.2 |
| SFLS | ≤ 0.2 |
| RMMG | 0.985 |
| HPDE | ≤ 0.2 |
| TQHL | ≤ 0.2 |
| ALFA | ≤ 0.2 |
| AITV | ≤ 0.2 |

| Variant | one-hybrid fitness for binding parS DNA |
| --- | --- |
| PCKG | ≤ 0.2 |
| EHDC | ≤ 0.2 |
| TSGE | ≤ 0.2 |
| CGYF | ≤ 0.2 |
| ARMM | ≤ 0.2 |
| ADHG | ≤ 0.2 |
| TPRN | ≤ 0.2 |
| QTQF | ≤ 0.2 |
| CVAR | ≤ 0.2 |
| HVTV | ≤ 0.2 |
| CDKA | ≤ 0.2 |
| ITYW | ≤ 0.2 |
| ERGV | ≤ 0.2 |
| TANH | ≤ 0.2 |
| NYIG | ≤ 0.2 |
| ECLS | ≤ 0.2 |
| HKAS | ≤ 0.2 |
| CCHL | ≤ 0.2 |
| MTRI | ≤ 0.2 |
| PWPT | ≤ 0.2 |
| CRAD | ≤ 0.2 |
| SVTH | ≤ 0.2 |
| LALK | ≤ 0.2 |
| FTMY | ≤ 0.2 |

| Variant | one-hybrid fitness for binding parS DNA |
| --- | --- |
| YATH | ≤ 0.2 |
| KHDS | ≤ 0.2 |
| TSIH | ≤ 0.2 |
| NHYR | ≤ 0.2 |
| VPHF | ≤ 0.2 |
| WGRL | ≤ 0.2 |
| EITI | ≤ 0.2 |
| KSRR | ≤ 0.2 |
| HQST | ≤ 0.2 |
| RFNG | 1 |
| ATNH | ≤ 0.2 |
| VDVV | ≤ 0.2 |
| AMCN | ≤ 0.2 |
| GCQR | ≤ 0.2 |
| WPRS | ≤ 0.2 |
| IYFG | ≤ 0.2 |
| AAPE | ≤ 0.2 |
| RCFP | ≤ 0.2 |
| KWEL | ≤ 0.2 |
| MKSN | ≤ 0.2 |
| GNKY | ≤ 0.2 |
| VLIG | ≤ 0.2 |
| GKAE | ≤ 0.2 |
| THPC | ≤ 0.2 |

| Variant | one-hybrid fitness for binding parS DNA |
| --- | --- |
| DQPR | ≤ 0.2 |
| INPC | ≤ 0.2 |
| PVGA | ≤ 0.2 |
| NTPW | ≤ 0.2 |
| KANT | ≤ 0.2 |
| NRSG | ≤ 0.2 |
| WTRT | ≤ 0.2 |
| IYNT | ≤ 0.2 |
| GAKT | ≤ 0.2 |
| EWQS | ≤ 0.2 |
| FLAF | ≤ 0.2 |
| HIST | ≤ 0.2 |
| HSNV | ≤ 0.2 |
| PFTK | ≤ 0.2 |
| AELR | ≤ 0.2 |
| SFFI | ≤ 0.2 |
| RELP | ≤ 0.2 |
| QARF | ≤ 0.2 |
| DPAS | ≤ 0.2 |
| RKNI | ≤ 0.2 |
| KGTR | ≤ 0.2 |
| CLHL | ≤ 0.2 |
| DASI | ≤ 0.2 |
| TTKQ | ≤ 0.2 |

| Variant | one-hybrid fitness for binding parS DNA |
| --- | --- |
| KSFF | ≤ 0.2 |
| GHWA | ≤ 0.2 |
| PHIK | ≤ 0.2 |
| KLGR | ≤ 0.2 |
| MPGY | ≤ 0.2 |
| NLSN | ≤ 0.2 |
| QSDR | ≤ 0.2 |
| ADLV | ≤ 0.2 |
| KHEG | ≤ 0.2 |
| ASFA | ≤ 0.2 |
| LWNR | ≤ 0.2 |
| KGAN | ≤ 0.2 |
| QLFM | ≤ 0.2 |
| TAWI | ≤ 0.2 |
| KRRK | ≤ 0.2 |
| KDMG | ≤ 0.2 |
| LKRI | ≤ 0.2 |
| GYKL | ≤ 0.2 |
| NIKQ | ≤ 0.2 |
| QLRL | ≤ 0.2 |
| GAPT | ≤ 0.2 |
| HRLK | ≤ 0.2 |
| RNAW | ≤ 0.2 |
| YCAL | ≤ 0.2 |

| Variant | one-hybrid fitness for binding parS DNA |
| --- | --- |
| RFRD | ≤ 0.2 |
| SRGE | ≤ 0.2 |
| YLAT | ≤ 0.2 |
| MNPL | ≤ 0.2 |
| MFVT | ≤ 0.2 |
| AVYT | ≤ 0.2 |
| TWQS | ≤ 0.2 |
| HKGC | ≤ 0.2 |
| GNDV | ≤ 0.2 |
| VHHN | ≤ 0.2 |
| GANC | ≤ 0.2 |
| GLNP | ≤ 0.2 |
| KQMR | ≤ 0.2 |
| AADR | ≤ 0.2 |
| MNDS | ≤ 0.2 |
| PTRN | ≤ 0.2 |
| PKKF | ≤ 0.2 |
| SPSF | ≤ 0.2 |
| VNGK | ≤ 0.2 |
| CYVS | ≤ 0.2 |
| WSNC | ≤ 0.2 |
| QGKL | ≤ 0.2 |
| AQIV | ≤ 0.2 |
| SFTY | ≤ 0.2 |

| Variant | one-hybrid fitness for binding parS DNA |
| --- | --- |
| KCCV | ≤ 0.2 |
| HPCW | ≤ 0.2 |
| INYP | ≤ 0.2 |
| HVGL | ≤ 0.2 |
| RYDH | ≤ 0.2 |
| WYHG | ≤ 0.2 |
| RSRK | ≤ 0.2 |
| PATP | ≤ 0.2 |
| RAAC | 0.98 |
| PIQC | ≤ 0.2 |
| IRYC | ≤ 0.2 |
| SPAV | ≤ 0.2 |
| LRSV | ≤ 0.2 |
| TWMY | ≤ 0.2 |
| FYVC | ≤ 0.2 |
| QGNE | ≤ 0.2 |
| WFKG | ≤ 0.2 |
| GFNR | ≤ 0.2 |
| KTSK | ≤ 0.2 |
| LIYR | ≤ 0.2 |
| RNFQ | ≤ 0.2 |
| YQTN | ≤ 0.2 |
| CRRC | ≤ 0.2 |
| SKQF | ≤ 0.2 |

| Variant | one-hybrid fitness for binding parS DNA |
| --- | --- |
| QRRL | ≤ 0.2 |
| PHLT | ≤ 0.2 |
| QAQT | ≤ 0.2 |
| QPVF | ≤ 0.2 |
| NTSG | ≤ 0.2 |
| APWG | ≤ 0.2 |
| RGFL | ≤ 0.2 |
| AYWA | ≤ 0.2 |
| DLFE | ≤ 0.2 |
| SLCV | ≤ 0.2 |
| CSMD | ≤ 0.2 |
| KWAR | ≤ 0.2 |
| QGQR | ≤ 0.2 |
| RHCV | ≤ 0.2 |
| LRHK | ≤ 0.2 |
| YYPS | ≤ 0.2 |
| HTIY | ≤ 0.2 |
| LPYR | ≤ 0.2 |
| RVPK | ≤ 0.2 |
| LENR | ≤ 0.2 |
| WSHT | ≤ 0.2 |
| QFGS | ≤ 0.2 |
| FWEG | ≤ 0.2 |
| HIAS | ≤ 0.2 |

| Variant | one-hybrid fitness for binding parS DNA |
| --- | --- |
| LLQY | ≤ 0.2 |
| HDHR | ≤ 0.2 |
| LCRI | ≤ 0.2 |
| VPPH | ≤ 0.2 |
| RVKV | ≤ 0.2 |
| GSEC | ≤ 0.2 |
| AQRG | ≤ 0.2 |
| YVPA | ≤ 0.2 |
| SNNW | ≤ 0.2 |
| SCYN | ≤ 0.2 |
| KRIV | ≤ 0.2 |
| RFVE | ≤ 0.2 |
| ENWV | ≤ 0.2 |
| NWTC | ≤ 0.2 |
| FYHS | ≤ 0.2 |
| ARAG | ≤ 0.2 |
| DMEG | ≤ 0.2 |
| PDRH | ≤ 0.2 |

Reference: a collection of fitness landscapes (doi:10.1016/j.celrep.2020.107928)
